Assay results taken from PubChem BioAssay AID1645882 (National Center for Advancing Translational Sciences (NCATS), 2021).
About 120 (0.75%) of roughly 16,000 compounds were called active. About 4% were inconclusive and are not listed. Calls follow the shape of the dose curve; as a rule, active = well fitted inhibition curve with a large enough effect; inconclusive = small, poorly fitted or top-dose-only effect; inactive = no such curve, though single readings can be large or run the other way. The list shows a part of the results.

biological target: Rap guanine nucleotide exchange factor 3 (Homo sapiens) (UniProt O95398); experiment: Validation qHTS for antagonist of cAMP-regulated guanine nucleotide exchange factor 3 (EPAC1); details: EPAC1 Rap1B-BODIPY-GDP exchange, fluorescence; series mostly up to 150 µM; activity change, negative = inhibition: at the top concentration; also: nearly all actives have a fitted effect of over 75% in size;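 as to activity change, negative = inhibition: plate controls were DMSO for no effect and ATA control for full effect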
Chain of UniProt O95398 (O95398 whole entry, looked up): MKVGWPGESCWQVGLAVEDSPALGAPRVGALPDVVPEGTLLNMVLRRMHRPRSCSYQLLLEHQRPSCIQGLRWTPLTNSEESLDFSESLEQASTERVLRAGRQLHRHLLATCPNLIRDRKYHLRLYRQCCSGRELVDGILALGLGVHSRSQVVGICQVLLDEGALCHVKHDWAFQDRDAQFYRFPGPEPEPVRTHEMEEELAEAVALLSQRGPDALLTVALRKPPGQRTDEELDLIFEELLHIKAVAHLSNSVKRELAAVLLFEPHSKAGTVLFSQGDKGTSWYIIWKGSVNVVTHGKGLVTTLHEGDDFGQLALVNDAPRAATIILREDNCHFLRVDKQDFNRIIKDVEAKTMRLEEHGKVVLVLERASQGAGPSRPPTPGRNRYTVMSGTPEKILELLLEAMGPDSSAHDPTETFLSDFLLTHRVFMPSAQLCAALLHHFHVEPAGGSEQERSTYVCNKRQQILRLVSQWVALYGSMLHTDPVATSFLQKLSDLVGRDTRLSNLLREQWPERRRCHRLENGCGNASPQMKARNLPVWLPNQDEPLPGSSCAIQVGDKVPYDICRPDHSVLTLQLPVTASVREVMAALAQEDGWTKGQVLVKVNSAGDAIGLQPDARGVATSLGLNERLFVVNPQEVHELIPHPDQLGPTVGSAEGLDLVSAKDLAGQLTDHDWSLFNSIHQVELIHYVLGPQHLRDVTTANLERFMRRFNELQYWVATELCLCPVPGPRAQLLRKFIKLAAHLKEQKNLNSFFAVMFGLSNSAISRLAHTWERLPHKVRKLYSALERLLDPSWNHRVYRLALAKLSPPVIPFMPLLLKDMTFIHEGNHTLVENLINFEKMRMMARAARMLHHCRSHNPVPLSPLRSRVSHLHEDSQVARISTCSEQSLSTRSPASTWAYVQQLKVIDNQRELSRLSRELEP
Outline: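 Nucleotide exchange followed as fluorescence loss when BODIPY-GDP leaves Rap1B (480 nm excitation, 540 nm emission), read at 5 min intervals over 30 min. Reaction: 100 nM EPAC1, 250 nM RAP1B-BODIPY-GDP, 50 uM GDP; ATA and DMSO define normalization.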
Potency is read from the fitted curve at half-maximal effect.

Activity change, negative = inhibition, inactive:
c1ccc2nc(C3=NCCN3)ccc2c1, C=C[C@@H]1c2cc(C)ccc2N(S(=O)(=O)c2ccc(C)cc2)[C@H](c2ccccc2)C1(C#N)C#N -0.615%, COc1ccc(C(=O)N2CCC3(CC2)CN(C(=O)Nc2cccc(C#N)c2)C3)cc1 23.4%, CC12CCCC(O)(C1)C1CC(C)(C)C1CC2 (stereo not given) -2.91%, CC(C)(C)c1ccc(C(O)CCCN2CCC(C(O)(c3ccccc3)c3ccccc3)CC2)cc1 (stereo not given), CC(COc1ccccc1)NC(C)C(O)c1ccc(O)cc1 (stereo not given), Cc1cc(=O)oc2c(O)c(O)ccc12 1.89%, N#Cc1cccc(-c2nc3cnc(N4CCOCC4)nc3n(C3CC3)c2=O)c1 14.2%, NCCCNCCSP(=O)(O)O, CC[C@@H](C(=O)[C@@H](C)[C@@H](O)[C@H](C)CCc1ccc(C)c(O)c1C(=O)O)[C@H]1O[C@](CC)([C@H]2CC[C@](O)(CC)[C@H](C)O2)C[C@@H]1C 9.78%, O=C(O)CCCC/C=C(\c1ccccc1)c1cccnc1 9.21%, CC[C@]1(c2ncc[nH]2)Cc2ccccc2O1 10.2%, COc1ccc(C(=O)NCC2Cc3cccc(-c4cncnc4)c3O2)c(OC)c1OC (stereo not given) -13.9%, O=C(O)CCC/C=C\C[C@@H]1[C@@H](/C=C/[C@@H](O)COc2cccc(Cl)c2)[C@H](O)C[C@@H]1O, c1ccc(Nc2ncnc3ccc(-c4cccnc4)cc23)cc1 0.432%, C[C@@H]1C[C@@H]2[C@H]3CCC4=CC(=O)C=C[C@]4(C)[C@]3(F)[C@@H](O)C[C@@]2(C)[C@@]1(O)C(=O)CO 1.78%, COC(=O)N1CCC2(CCCN(Cc3ccc(C#N)cc3)C2)CC1 7.53%, COC(=O)Oc1ccccc1C(=O)O 3.73%, N#CCCN1CCN(Cc2ccccc2)CCC1=O 12.5%, COC(=O)[C@@H]1CCCN1Cc1ccc2c(c1)CN(Cc1coc3ccccc3c1=O)CCO2 23.4%, COCC(=O)Nc1cc(C(=O)N2CCN(c3ccc(Cl)cn3)CC2)c2c(c1)nc(C1CCC1)n2C 9.32%, S=c1[nH]c2ccccc2s1, CC(=O)c1c(O)cc(O)cc1O 12.7%, COCC(=O)N1CCC2(CCN(Cc3ccccc3)CC2)CC1 13.5%, O=C(O)C1(O)CC(O)C(O)C(O)C1 (stereo not given) 19%, COCC(=O)N1CCC[C@@]2(CCN(C(=O)Nc3cccc(F)c3)C2)C1 5.96%, Cc1cc(N(C)C)cc(C)c1/C=C/c1cc[n+](C)c2ccccc12 11.3%, COc1cc(CN2CCCC(n3cc(C(=O)N4CCCCC4)nn3)C2)cc2c1OCO2 (stereo not given) 8.49%, CCCCN1CCCCC1C(=O)Nc1c(C)cccc1C (stereo not given) 5.29%, CCOC(=O)NNc1nncc2ccccc12, Cc1cnc(CNc2ncncc2-c2ccccc2Cl)cn1 -2.39%, O=C1CC[C@@H](OCc2ccccc2)CCN1CC[C@H](Sc1ccccc1)c1ccccc1 -3.48%, O=C(NCc1ccncc1)c1cnn(-c2nccc(-c3cc4ccccc4o3)n2)c1C1CC1 13.7%, CN(C)c1ncc2nc(-c3ccccc3)c(=O)n(CCC#N)c2n1 10.5%, CN1CCCCC1CCN1c2ccccc2Sc2ccc(S(C)=O)cc21 (stereo not given), O=C(NC1CCN(Cc2ccccc2)CC1)c1ccc(I)cc1, CC(C)C(NC(=O)c1ccoc1)c1nnc2n1CCN(Cc1ccc3c(c1)Cc1ccccc1-3)CC2 (stereo not given) -2.82%, CC(CCC(=O)O)C1CCC2C3CC(O)[C@@H]4CC(O)CC[C@]4(C)C3CC[C@@]12C (stereo not given in full) 1.14%, CS(=O)(=O)Nc1cccc(-c2cncnc2NCc2cccs2)c1 1.29%, CN(Cc1ccco1)c1ncnc2ccc(-c3ccccc3C(F)(F)F)cc12 -22.9%, COc1ccc2[nH]cc(CCNc3ncncc3-c3ccccc3CN(C)C)c2c1 -7.45%, O=c1ccc2ccc(O[C@@H]3O[C@H](CO)[C@@H](O)[C@H](O)[C@H]3O)c(O)c2o1 7.79%, CCN(CCO)CCCC(C)Nc1ccnc2cc(Cl)ccc12 (stereo not given), CCC[C@H]1COCCS(=O)(=O)N1Cc1ccccc1 21.1%, C=C(C)C1CC=C(CO)CC1 (stereo not given) 8.05%, Cc1nc(Nc2ncc(C(=O)Nc3c(C)cccc3Cl)s2)cc(N2CCN(CCO)CC2)n1 0.311%, CC(C)CN1CCCC2(CCN(C(=O)c3cnccn3)CC2)C1 18%, CON 18.4%, CCc1nc2cc(C(=O)N3CCC[C@H]3C(=O)OC)cc(NC(=O)c3ccccc3OC)c2n1C 5.19%, COCCn1c(=O)c(-c2ccc(F)cc2)nc2cnc(OC)nc21 20%, COc1ccc(-c2nc3cc(F)ccc3cc2CN(C(=O)c2cccc(OC)c2)C2CC2)cc1 7.85%, CN(C)c1ccc(C(=C2C=CC(=[N+](C)C)C=C2)c2ccc(N(C)C)cc2)cc1, O=C(NCCc1nnc2n1CCN(Cc1ccsc1)CC2)c1ccc(F)cc1 0.369%, CC(=O)NCCNc1ncnc2ccc(-c3ccccc3C)cc12 7.27%, CCC(=O)c1ccc2c(c1)N(CCCN1CCN(CCO)CC1)c1ccccc1S2 2.49%, COc1ccc(CC2c3cc(OC)c(OC)cc3CC[N+]2(C)CCC(=O)OCCCCCOC(=O)CC[N+]2(C)CCc3cc(OC)c(OC)cc3C2Cc2ccc(OC)c(OC)c2)cc1OC (stereo not given), COc1ncc2ncc(=O)n(CCC#N)c2n1 10.7%, CC(=O)[C@H]1CC[C@H]2[C@@H]3CC=C4C[C@@H](O)CC[C@]4(C)[C@H]3CC[C@]12C 1.08%, CCC1C(=O)NCCN1Cc1ccc2c(c1)CN(Cc1cccc(OC)c1OC)CCO2 (stereo not given) -1.28%, CSc1nc(N)c2ncn([C@@H]3O[C@H](COP(=O)(O)OP(=O)(O)O)C(O)[C@H]3O)c2n1 (stereo not given in full) 1.58% [at 75.8 µM], O=C(OCC(COC(=O)c1cccnc1)(COC(=O)c1cccnc1)COC(=O)c1cccnc1)c1cccnc1 25.4%, COc1cccc(CN2CCC(n3cc(C(=O)N4CCCCC4)nn3)CC2)c1OC 6.54%, O=S(=O)([O][Al])OC[C@H]1O[C@@](COS(=O)(=O)[O][Al])(O[C@H]2O[C@H](COS(=O)(=O)[O][Al])[C@@H](OS(=O)(=O)[O][Al])[C@H](OS(=O)(=O)[O][Al])[C@H]2OS(=O)(=O)[O][Al])[C@@H](OS(=O)(=O)[O][Al])[C@@H]1OS(=O)(=O)[O][Al] 16.4%, COc1ccc(-c2nc3cnc(N4CCNCC4)nc3n(Cc3ccc(F)cc3)c2=O)cc1 7.48%, COc1cccc(-c2ccc3ncnc(NCCc4c[nH]c5ccc(OC)cc45)c3c2)c1 -14.1%, Oc1cc2c(cc1O)[C@@H]1c3ccc(O)c(O)c3OC[C@]1(O)C2 -8.55%, CC(C(=O)O)c1ccc2c(c1)CC(=O)c1ccccc1S2 (stereo not given) 33.1%, O=C1CC(CC(=O)N2CC3CCCC2C3)(c2cccc(F)c2)C(=O)N1Cc1cccnc1 (stereo not given) -0.543%, COc1cccc(Nc2ncc3nc(C)c(=O)n(C4CC4)c3n2)c1 7.2%, Clc1ccc(N2CCN(Cc3c[nH]c4ncccc34)CC2)cc1, Cc1nc(-c2ccc(OCC(C)C)c(C#N)c2)sc1C(=O)O 40.7%, O=c1ccn([C@@H]2O[C@H](COP(=O)(O)OP(=O)(O)OP(=O)(O)O)[C@@H](O)[C@H]2O)c(=O)[nH]1 1.9%, O=C(c1cnccn1)N1CCC2(CC1)CCN(c1ccccc1)CC2 17.5%, COc1ccc(C(=O)N2CCC3(CCCN(c4ncccn4)C3)CC2)cc1 11%, COc1ccc2cc([S+]([O-])Cc3ncc(C)c(OC)c3C)nc2c1 -8.58% [at 75.8 µM], CCNc1ncc2nc(C)c(=O)n(-c3ccc(OC)cc3)c2n1 18.4%, C[C@@H](O)[C@H]1C(=O)N2C(C(=O)[O-])=C(SC3Cn4cnc[n+]4C3)[C@H](C)[C@H]12 (stereo not given in full) 29.7%, COCCNc1nc(-c2ccccc2C)nc2ccccc12 -9.25%, c1ncc(CC2CCNCC2)[nH]1, Cn1ccc2cc3c(cc21)CCN3C(=O)Nc1cccnc1, Cc1oc(-c2ccccc2NC(=O)c2cccnc2)nc1CNC(=O)c1ccc(N(C)C)cc1 10.2%, Cc1cnc(CNc2ncnc3ccc(-c4ccc5c(c4)OCO5)cc23)cn1 3.77%, CC(C)CCCC(C)C1CCC2C3=CC[C@@H]4CC(O)CC[C@@]4(C)C3CC[C@]21C (stereo not given in full) -17.4%, Cc1occc1C(=O)Nc1cccc(-c2nc(CNC(=O)c3cccc(C#CC(C)(C)O)c3)c(C)o2)c1 13.3%, C=CCc1cccc(C=NNC(=O)CN2CCN(Cc3ccccc3)CC2)c1O -1.65% [at 75.8 µM], CC(=O)Nc1ccc(S(=O)(=O)Nc2cc(C)on2)cc1 22.7%, CC(=O)NCCNc1cc(-c2ccccc2C)ncn1 -2.16%, CC(C)C[C@@H](CC#N)N1CCN(CCc2ccccc2)CCC1=O 8.75%, Cc1ccc(CNc2ncnc3sc(C(=O)N4CCC[C@H]4C(N)=O)c(C)c23)o1 12.2%, O=C(O)CP(=O)(O)O, CN(C)c1ncc2nc(-c3cc(F)cc(F)c3)c(=O)n(C[C@H]3CCCO3)c2n1 2.17%, CC1(C)CC(=O)C([C@H]2C3=C(CC(C)(C)CC3=O)Oc3ccccc32)C(=O)C1 8.35%, O=C1CCN(Cc2ccccc2)CCN1CCO 19.8%, CC(C1OC(C)(C)C(O)C1O)C1CC[C@@]2(C)C3=CCC4C(C)(C)C(=O)CC[C@]4(C)C3CC[C@@]12C (stereo not given in full) -3.16%, COc1ccc(CN2CCC3(CCC(CNC(=O)c4ccnn4C)O3)CC2)c(C)c1C (stereo not given) 16.5%, OCC(O)C(O)[C@H](O[C@H]1OC(CO)C(O)C(O)C1O)[C@H](O)CO (stereo not given in full) 16.9%, CC[N+](CC)(CC)c1ccc(/C=C/c2ccnc3ccccc23)cc1 -28.4%, COCCn1c(=O)cnc2cnc(Oc3cccc(Cl)c3)nc21 9.04%, Cc1c(C(=O)N2CC[C@@H]3CCCC[C@H]3C2)sc2ncnc(NCCc3ccccn3)c12 2.45%

Potency, active:
CC(C)c1ccc2c(c1)c(SC(C)(C)C)c(CC(C)(C)C(=O)O)n2Cc1ccc(Cl)cc1 28.2 µM
